{"source": "paper PMC4336329", "about": "(PLoS ONE, 2015)", "note": "The whole screen tested about 310,000 compounds, of which about 14,000 (4.5%) showed an effect of 50% or more. Effects have a minus sign here. The list shows a part of the results.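 Note: peak tail current of the secondary pulse compared with the same well before compound.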", "data": [{"biological_target": "human ether-à-go-go-related gene (hERG) potassium channel (human, UniProt Q12809)", "sequence (Q12809 whole entry, looked up)": "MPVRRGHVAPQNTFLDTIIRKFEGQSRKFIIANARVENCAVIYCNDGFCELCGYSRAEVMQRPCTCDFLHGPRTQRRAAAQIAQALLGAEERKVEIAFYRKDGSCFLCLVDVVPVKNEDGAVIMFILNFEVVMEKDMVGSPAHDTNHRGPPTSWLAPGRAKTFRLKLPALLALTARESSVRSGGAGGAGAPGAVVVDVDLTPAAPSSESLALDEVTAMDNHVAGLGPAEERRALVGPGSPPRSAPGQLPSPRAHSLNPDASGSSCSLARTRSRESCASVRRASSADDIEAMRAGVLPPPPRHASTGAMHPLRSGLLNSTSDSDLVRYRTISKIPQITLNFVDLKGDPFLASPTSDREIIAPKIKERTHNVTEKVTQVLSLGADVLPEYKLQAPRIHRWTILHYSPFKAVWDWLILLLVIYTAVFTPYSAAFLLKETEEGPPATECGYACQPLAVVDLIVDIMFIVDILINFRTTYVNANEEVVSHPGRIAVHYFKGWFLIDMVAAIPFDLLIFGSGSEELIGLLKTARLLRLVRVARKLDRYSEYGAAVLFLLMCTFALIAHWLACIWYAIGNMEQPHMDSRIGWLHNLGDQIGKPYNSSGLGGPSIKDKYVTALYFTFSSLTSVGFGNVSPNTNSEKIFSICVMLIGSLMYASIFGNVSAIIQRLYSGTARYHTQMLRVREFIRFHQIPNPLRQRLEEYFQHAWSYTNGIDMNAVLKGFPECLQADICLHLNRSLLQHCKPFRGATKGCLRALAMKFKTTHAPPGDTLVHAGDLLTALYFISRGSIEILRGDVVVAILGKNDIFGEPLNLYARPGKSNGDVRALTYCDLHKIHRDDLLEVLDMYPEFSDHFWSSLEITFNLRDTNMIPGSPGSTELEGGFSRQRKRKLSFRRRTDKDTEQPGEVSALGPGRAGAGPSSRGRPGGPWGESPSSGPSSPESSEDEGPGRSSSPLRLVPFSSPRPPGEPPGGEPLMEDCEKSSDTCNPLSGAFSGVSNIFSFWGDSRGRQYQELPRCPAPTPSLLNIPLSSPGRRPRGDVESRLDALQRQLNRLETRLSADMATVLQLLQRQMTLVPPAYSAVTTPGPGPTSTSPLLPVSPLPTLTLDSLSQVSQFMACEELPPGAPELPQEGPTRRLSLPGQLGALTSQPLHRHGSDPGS", "test": "primary screen, population patch clamp on CHO cells stably expressing hERG", "units": {"hERG current change (%, negative = inhibition) at 10uM": "%"}, "values": [{"smiles": "C=CCn1c(N)cc(=O)nc1SCC(=O)N1CCN(c2ccc(F)cc2)CC1", "hERG current change (%, negative = inhibition) at 10uM": -4.5}, {"smiles": "Cc1ccc(CSc2ncnc3c2cnn3-c2ccccc2)cc1", "hERG current change (%, negative = inhibition) at 10uM": 36.9}, {"smiles": "CN=C(C)/C(C(=O)OC)=C(/O)c1ccc(Cl)cc1Cl", "hERG current change (%, negative = inhibition) at 10uM": 13.9}, {"smiles": "Cc1ccc(NC(=O)C(C)OC(=O)c2ccc(NC(=O)CC#N)cc2)cc1S(=O)(=O)N1CCOCC1", "note": "(centres unmarked)", "hERG current change (%, negative = inhibition) at 10uM": 5.04}, {"smiles": "Cc1cccc(NC(=O)CSc2cc(C)c(C#N)c3nc4ccccc4n23)c1", "hERG current change (%, negative = inhibition) at 10uM": -1}, {"smiles": "CCOC(=O)C1CCN(S(=O)(=O)c2cccc(-c3cn4cc(C)ccc4n3)c2)CC1", "hERG current change (%, negative = inhibition) at 10uM": -3.7}, {"smiles": "COC(=O)C1=C(N)Oc2cc(C)n(Cc3cccnc3)c(=O)c2C1c1cccc(OC)c1OC", "note": "(centres unmarked)", "hERG current change (%, negative = inhibition) at 10uM": -0.147}, {"smiles": "Cc1cc(Nc2cc(F)ccc2C)n2ncnc2n1", "hERG current change (%, negative = inhibition) at 10uM": 4.06}, {"smiles": "COc1ccccc1NC(=S)N(CCN(C)C)C(C)c1ccncc1", "note": "(centres unmarked)", "hERG current change (%, negative = inhibition) at 10uM": -7.49}, {"smiles": "CSCCC(NC(=O)C12CC3CC(CC(C3)C1)C2)C(=O)OCC(=O)c1ccccc1", "note": "(centres unmarked)", "hERG current change (%, negative = inhibition) at 10uM": 12.7}, {"smiles": "O=C1N=c2ccc(Br)cc2=C1c1sc(=S)n(NS(=O)(=O)c2ccccc2)c1O", "hERG current change (%, negative = inhibition) at 10uM": 3.81}, {"smiles": "COC(=O)c1ccc(CSc2nnc3c(n2)[nH]c2ccccc23)cc1", "hERG current change (%, negative = inhibition) at 10uM": -23.1}, {"smiles": "Cc1ccc(OCCC(=O)OCC(=O)Nc2ccc(Cl)cn2)cc1", "hERG current change (%, negative = inhibition) at 10uM": -6.26}, {"smiles": "O=C(NCCC1=CCCCC1)C1CCC(=O)N(Cc2cccc(C(F)(F)F)c2)C1", "note": "(centres unmarked)", "hERG current change (%, negative = inhibition) at 10uM": -17.2}, {"smiles": "COCCCn1c(=O)c2ccccc2n(CC(=O)NCCC2=CCCCC2)c1=O", "hERG current change (%, negative = inhibition) at 10uM": -16.2}, {"smiles": "CC(=O)c1cccc(N(CC(=O)Nc2cccnc2)S(C)(=O)=O)c1", "hERG current change (%, negative = inhibition) at 10uM": -6.65}, {"smiles": "O=C(NC1CCCC1)C(c1ccccn1)N(C(=O)c1csnn1)c1ccc(F)cc1", "note": "(centres unmarked)", "hERG current change (%, negative = inhibition) at 10uM": 11.4}, {"smiles": "CCOc1ccc(NC(=O)CCCOc2cc(=O)n(C)c3ccccc23)cc1", "hERG current change (%, negative = inhibition) at 10uM": 4.68}, {"smiles": "COCCn1c(SCc2nc3cc(OC)c(OC)cc3c(=O)[nH]2)nnc1-c1ccncc1", "hERG current change (%, negative = inhibition) at 10uM": 2.68}, {"smiles": "COC(=O)C1=C(c2cccc(OC)c2OC)C[C@@H]2CC[C@H]1N2C(=O)N1CCC(C)CC1", "hERG current change (%, negative = inhibition) at 10uM": -4.1}, {"smiles": "Cn1nc(C(=O)Nc2ccccc2Cl)cc1C(=O)Nc1ccccc1Cl", "hERG current change (%, negative = inhibition) at 10uM": 1.65}, {"smiles": "CC(C)Oc1ccc2ccccc2c1C=O", "hERG current change (%, negative = inhibition) at 10uM": -2.75}, {"smiles": "O=C(O)C1(c2ccccc2)CCN(S(=O)(=O)c2ccc(Cl)s2)CC1", "hERG current change (%, negative = inhibition) at 10uM": 0.758}, {"smiles": "CCOc1ccccc1NC(=O)CCC(=O)Nc1ccccc1OCC", "hERG current change (%, negative = inhibition) at 10uM": 7.25}, {"smiles": "CC(C)C[C@H](NC(=O)N1CC(=O)Nc2ccccc21)C(=O)N[C@@H](C(=O)O)c1ccccc1", "hERG current change (%, negative = inhibition) at 10uM": -1.09}, {"smiles": "COc1ccc(N=Cc2nc(-c3ccccc3)oc2OC(C)=O)cc1", "hERG current change (%, negative = inhibition) at 10uM": 10.9}, {"smiles": "O=C(O)c1nccnc1C(=O)N1CCN(c2ccccc2)CC1", "hERG current change (%, negative = inhibition) at 10uM": 17.5}, {"smiles": "O=C(c1ccc(OC2CCN(Cc3ccc(F)cc3)CC2)cc1)N1CCCC1", "hERG current change (%, negative = inhibition) at 10uM": -24}, {"smiles": "CN1CCN(CC(=O)N2CCn3c4c(c5cc(C6CCCCC6)ccc53)CCCC42)CC1", "note": "(centres unmarked)", "hERG current change (%, negative = inhibition) at 10uM": -17.1}, {"smiles": "Cc1ccc(N2CCN(S(=O)(=O)N3CCCCC3)CC2)cc1C", "hERG current change (%, negative = inhibition) at 10uM": 22.4}, {"smiles": "CCN(c1ccccc1)S(=O)(=O)c1ccc(C(=O)Nc2nnc(-c3ccco3)o2)cc1", "hERG current change (%, negative = inhibition) at 10uM": 17.7}, {"smiles": "CCCCCNCC(=O)Nc1cccc(C(=O)Nc2cccc(C(F)(F)F)c2)c1", "hERG current change (%, negative = inhibition) at 10uM": -48.2}, {"smiles": "Cc1ccc(/C(=N/Nc2nc3ccccc3s2)C2=C(O)c3ccccc3C2=O)cc1", "hERG current change (%, negative = inhibition) at 10uM": 7.33}, {"smiles": "COc1ccc(NC(=O)COC(=O)Cc2ccc(-c3ccccc3)cc2)c(OC)c1", "hERG current change (%, negative = inhibition) at 10uM": -1.12}, {"smiles": "COc1cc(OC)cc(N2CCN(S(=O)(=O)c3ccc(-n4cnnn4)cc3)CC2)c1", "hERG current change (%, negative = inhibition) at 10uM": 14.2}, {"smiles": "C=CCn1c(SCc2nc3cc(C(F)(F)F)ccc3c(=O)[nH]2)nc2sc(CC)cc2c1=O", "hERG current change (%, negative = inhibition) at 10uM": 9.42}, {"smiles": "COc1ccccc1N/C(=N/S(=O)(=O)c1ccc(Cl)cc1)c1ccccc1", "hERG current change (%, negative = inhibition) at 10uM": -35.1}, {"smiles": "CC1(C)CN=C(NC2CCCCC2)S1", "hERG current change (%, negative = inhibition) at 10uM": 8.62}, {"smiles": "COc1ccc(S(=O)(=O)N(C)C2CCS(=O)(=O)C2)cc1OC", "note": "(centres unmarked)", "hERG current change (%, negative = inhibition) at 10uM": 13.9}, {"smiles": "COc1ccc(CNC(NC(=O)c2ccccc2)(C(F)(F)F)C(F)(F)F)cc1", "hERG current change (%, negative = inhibition) at 10uM": 1.38}, {"smiles": "O=C(N/N=C/c1cccs1)c1cccc(S(=O)(=O)Nc2ccc(Cl)cc2)c1", "hERG current change (%, negative = inhibition) at 10uM": 17.1}, {"smiles": "O=C(CCc1c[nH]c2ccccc12)NCC(=O)Nc1ccc(F)c(F)c1F", "hERG current change (%, negative = inhibition) at 10uM": -10.7}, {"smiles": "Cc1c(C)c2ccc(OCC(=O)N3CCN(c4cccc(Cl)c4)CC3)cc2oc1=O", "hERG current change (%, negative = inhibition) at 10uM": 16.5}, {"smiles": "Cc1ccccc1N1CCN(C(=S)c2ccc([N+](=O)[O-])cc2)CC1", "hERG current change (%, negative = inhibition) at 10uM": -40}, {"smiles": "COc1cccc(N2CC(C(=O)Nc3nnc(SCC(=O)Nc4ccc(NC(C)=O)cc4)s3)CC2=O)c1", "note": "(centres unmarked)", "hERG current change (%, negative = inhibition) at 10uM": 12.8}, {"smiles": "C[C@@]12C(=O)Nc3cc(F)ccc3C(=O)N1[C@H]1c3ccccc3OC[C@@H]1[C@@H]2c1ccccc1", "hERG current change (%, negative = inhibition) at 10uM": -0.864}, {"smiles": "N#Cc1cccc(NC(=O)CN2C(=O)NC(Cc3ccccc3)C2=O)c1", "note": "(centres unmarked)", "hERG current change (%, negative = inhibition) at 10uM": 2.91}, {"smiles": "O=C(CSc1cccc2cccnc12)N/N=C/c1ccncc1", "hERG current change (%, negative = inhibition) at 10uM": -0.0291}, {"smiles": "COc1ccccc1/C=C\\C(=O)NCC(=O)N/N=C/c1ccc(O)cc1O", "hERG current change (%, negative = inhibition) at 10uM": 15}, {"smiles": "C[C@H]1CCC[C@]2(O[C@@H](CCO)C[C@@H](O)[C@@H]2O)O1", "hERG current change (%, negative = inhibition) at 10uM": -12.8}, {"smiles": "O=C(C1CCCN1S(=O)(=O)c1cccc2nsnc12)N1CCCCC1", "note": "(centres unmarked)", "hERG current change (%, negative = inhibition) at 10uM": 11}, {"smiles": "O=C(NNC(=O)C1CCCO1)c1ccc([N+](=O)[O-])cc1", "note": "(centres unmarked)", "hERG current change (%, negative = inhibition) at 10uM": 10}, {"smiles": "Cc1cc(C)cc(N(C(=O)c2ccc(Br)o2)C2C=CS(=O)(=O)C2)c1", "note": "(centres unmarked)", "hERG current change (%, negative = inhibition) at 10uM": -19.7}]}]}
